The record followed here is patent US20020039577A1 (published 2002).

Substitutions are numbered along the chain they refer to.

The labels stand for the following.
T1: CD86Ig (UniProt P42081 24-247)
T1 construct: Immobilized on the BIAcore chip; also called soluble CD86Ig
T1 sequence (looked up): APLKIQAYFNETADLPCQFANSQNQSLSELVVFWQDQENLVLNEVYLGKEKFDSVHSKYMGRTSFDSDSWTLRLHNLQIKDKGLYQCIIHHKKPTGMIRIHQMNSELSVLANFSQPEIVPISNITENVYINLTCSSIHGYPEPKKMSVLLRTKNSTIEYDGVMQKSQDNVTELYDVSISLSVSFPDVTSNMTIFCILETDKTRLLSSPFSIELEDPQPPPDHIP

B1: L104EA29L (Fc fusion)
chain: MHVAQPAVVLASSRGIASFVCEYASPGKLTEVRVTVLRQADSQVTEVCAATYMMGNELTFLDDSICTGTSSGNQVNLTIQGLRAMDTGLYICKVELMYPPPYYEGIGNGTQIYVIDPEPCPDSDQ[… human IgG1 Fc …]
notes: extracellular domain;domain: hinge, CH2 and CH3 regions of IgC1; Mutant CTLA4Ig tested unpurified in COS cell culture medium
B2: L104EA29W (Fc fusion)
chain: B1 chain with L29W
notes: as for B1
B3: L104EA29T (Fc fusion)
chain: B1 chain with L29T
notes: as for B1

This assay addresses T1, CD86Ig. Kind of assay: SPR screening of COS culture media over immobilized CD86Ig. As to the method:
COS cells were transfected with individual miniprep purified plasmid DNA and propagated for several days. […] All experiments were run on BIAcore™ or BIAcore™ 2000 biosensors at 25° C.
As to B1, the “fold slower “off” rate than wild type CTLA4Ig” value is roughly 4 fold.
Turning to B2, the “fold slower “off” rate than wild type CTLA4Ig” value is roughly 4 fold.
Then B3, with roughly 4 fold.
